The supplement of paper PMC10126150
Sequences with one replicate were seen in a single cluster, so their values are uncertain.

Tested on: ATP
Experiment: switch fluorescence ratio, 500 uM ATP over buffer (Cy3 cluster intensity, sum of 5 cycles each) (fold (ratio)); higher = stronger signal-on switching upon ATP binding; sequences stand for … in TCGTCGGCAGCGTCAGATGTGTATAAGAGACAGTTTTTTTTTTTTTTTTTTTTTTTTT…TC
Conditions: aptamer strand: ATP DNA aptamer (quencher-CACCTGGGGGAGTATTGCGGAGGAAGG + anchor), 100 nM annealed; ATP concentration: 500 uM; one replicate
How it was run: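 After annealing to 100 nM quencher-labelled ATP aptamer, Cy3-labelled switching-strand clusters on a modified Illumina MiSeq flow-cell were imaged in selection buffer. A second image followed after 15 min with 500 uM ATP at 22 °C, and five such buffer/ATP cycles were done, each separated by NaOH stripping and re-annealing. The fluorescence ratio, averaged per switch-domain sequence, is summed target-cycle over summed buffer-cycle Cy3 intensity per cluster, with clusters outside 100-1000 RFU excluded.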
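Further: ATP exposure 15 min at 22 °C before imaging.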

Row | Sequence | switch fluorescence ratio
1 | CATTCTACGG | 1.05
2 | CATTCTGATT | 1.03
3 | CATTCTTGCG | 1.01
4 | CATTGACGGG | 0.998
5 | CATTGACTC | 1.07
6 | CATTGATAAT | 0.974
7 | CATTGCAACC | 1.51
8 | CATTGCAATA | 4.3
9 | CATTGCCTTC | 1.07
10 | CATTGGACAT | 0.977
11 | CATTGGGCCA | 1
12 | CATTGGTCA | 0.99
13 | CATTGGTCCG | 0.992
14 | CATTGTAACA | 1.02
15 | CATTGTCCCT | 1.02
16 | CATTGTCTCG | 0.955
17 | CATTGTGAA | 1.02
18 | CATTGTGATG | 1
19 | CATTGTTGCT | 1.01
20 | CATTTAAATG | 0.999
21 | CATTTAATTT | 0.992
22 | CATTTACGGA | 0.987
23 | CATTTCCGAA | 0.999
24 | CATTTGTGAG | 0.919
25 | CATTTTACAA | 0.991
26 | CCAAAAAAA | 1.14

Row | Sequence | switch fluorescence ratio
27 | CCAAAAATCG | 1.02
28 | CCAAAACTCC | 1.87
29 | CCAAACGCCG | 1.03
30 | CCAACAAATT | 1.04
31 | CCAACGGCAG | 1.15
32 | CCAACTATAT | 1.07
33 | CCAAGACGTT | 0.986
34 | CCAAGGGAAC | 0.994
35 | CCAAGGGCGG | 1.01
36 | CCAAGTCCT | 1
37 | CCAAGTGCGT | 1.02
38 | CCAATAGAGA | 1.01
39 | CCAATATTTT | 1.01
40 | CCAATCATGG | 1.03
41 | CCAATGGGCT | 0.99
42 | CCAATGTGGA | 1.01
43 | CCAATGTGGG | 0.961
44 | CCAATTAAGT | 0.997
45 | CCACAAGATT | 1.09
46 | CCACAAGCCC | 1.68
47 | CCACACGCGG | 1.73
48 | CCACCATTAA | 1.06
49 | CCACCATTGA | 1.09
50 | CCACCGAGGA | 1.22
51 | CCACCTTATA | 1.12
52 | CCACGATTA | 1.15

Row | Sequence | switch fluorescence ratio
53 | CCACGGCTG | 1.1
54 | CCACGGCTTT | 1.12
55 | CCACGGGATC | 1.23
56 | CCACGGTGGT | 1.57
57 | CCACGGTGT | 2.21
58 | CCACGTCAGT | 1.05
59 | CCACGTTGGT | 0.982
60 | CCACTACGGC | 1.11
61 | CCACTAGCGA | 3.58
62 | CCACTCAGTT | 1.04
63 | CCACTGGTAA | 1.09
64 | CCACTGTCAG | 1.02
65 | CCACTTACCG | 1.23
66 | CCACTTCCTA | 1.15
67 | CCACTTTCAC | 1.16
68 | CCAGAAATGA | 1.01
69 | CCAGAAGAAA | 1.04
70 | CCAGACCTGC | 0.998
71 | CCAGACGAGC | 1.1
72 | CCAGACTCTG | 1.04
73 | CCAGAGATAC | 2.87
74 | CCAGAGGACT | 1.02
75 | CCAGAGGGGA | 1.01
76 | CCAGAGTTAG | 1.04
77 | CCAGATAAAC | 1.03
78 | CCAGATATAA | 1.04

Row | Sequence | switch fluorescence ratio
79 | CCAGATTCTG | 0.986
80 | CCAGCACGCG | 1.05
81 | CCAGCATGGT | 1.02
82 | CCAGCCCCCG | 1.11
83 | CCAGCGGGAC | 2.61
84 | CCAGGAGCCT | 1.08
85 | CCAGGATACG | 1.03
86 | CCAGGATCAG | 1.03
87 | CCAGGATTGC | 1.09
88 | CCAGGGCATC | 1.11
89 | CCAGTAAACT | 1.07
90 | CCAGTAACCC | 1.07
91 | CCAGTGTTGA | 1.08
92 | CCATAAGTAG | 1.02
93 | CCATACGCTT | 3.53
94 | CCATAGACCT | 1.32
95 | CCATAGACGT | 0.964
96 | CCATAGGAGC | 1.03
97 | CCATATACAG | 1.02
98 | CCATCATACT | 1.65
99 | CCATCCAGCC | 1.39
100 | CCATCTGAGT | 1.09
101 | CCATCTTCA | 1
